A value given as a limit tells only on which side of the number the result lay.

For orientation: IC50 means the concentration needed to halve the response being measured. The low end stands for higher potency, the high end for lower potency.

The subject of this test is UISO (VN-MCC) cells.

`CCN(CC)C(=S)SSC(=S)N(CC)CC` [Disulfiram] had an IC50 of 40 nM. For `CCOC(C)C(C=NNC(N)=S)=NNC(N)=S` (stereo not drawn) [Gloxazone, 3-ethoxy-2-oxobutyraldehyde bis(thiosemicarbazone)] the value was below 20 nM. `Cc1[nH]c2ccccc2c1CCNCc1ccc(/C=C/C(=O)NO)cc1` [Panobinostat]: half-maximal inhibition (IC50) was put at 28 nM.

`CC1=CC(=O)c2c(O)cccc2C1=O` [Plumbagin]: the IC50 is around 6000 nM.

`S=C(S)N1CCCC1` [Pyrrolidinedithiocarbamate] came in with a half-inhibitory concentration (IC50) of 210 nM. That is a sub-micromolar value.

`C/C=C(/C)C(=O)O[C@H]1C(C)=C2[C@H]([C@@H]1OC(=O)CCCCCCC)[C@@](C)(OC(C)=O)C[C@H](OC(=O)CCC)[C@@]1(O)[C@H]2OC(=O)[C@@]1(C)O` [Thapsigargin] returned an IC50 of 900 nM.

`O=C(N[C@H](COC(=O)[C@H](Cc1ccccc1)NC(=O)c1ccccc1)Cc1ccccc1)c1ccccc1` [asperphenamate]: the IC50 came out at 5190 nM. Then `COc1c(C)c2c(c(O)c1C/C=C(\C)CCC(=O)O)C(=O)OC2` [mycophenolic acid], with around 5000 nM; and `C[n+]1ccc2c(c1)c(O)c1c3c(c4cc(Br)ccc4nc32)C(=O)C[N+]1(C)C` [petrosamine B], with 3140 nM.

These data come from article PMC8245553, “Identification of natural product modulators of Merkel cell carcinoma cell growth and survival” (Scientific Reports, 2021).
